Reference: the supplement of paper PMC4604168 (melanoma cell lines)
Some of the results follow. Repeats are few or missing, and single values can be far off.

Key:
Assay in all cases: cell count relative to DMSO control; melanoma cells; higher = more viable cells
Settings in all cases: library dose: low library concentration; 72 h
[1] = tested on: MZ2-MEL
[2] = tested on: MeWo
[3] = tested on: RPMI7951
[4] = tested on: RVH-421
[5] = tested on: SkMel28
[6] = tested on: SkMel2
[7] = tested on: SkMel30
[8] = tested on: SkMel5
[9] = tested on: UACC257
[10] = tested on: UACC62
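Also: cell number obtained by counting DAPI-stained nuclei in high-throughput microscope images with image analysis software, screen run in 1,536-well plates.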

Structure (SMILES) | cell count [1] | cell count [2] | cell count [3] | cell count [4] | cell count [5] | cell count [6] | cell count [7] | cell count [8] | cell count [9] | cell count [10]
Cc1cc(Nc2cc(N3CCN(C)CC3)nc(/C=C/c3ccccc3)n2)n[nH]1 + COc1cc2c(Oc3ccc4[nH]c(C)cc4c3F)ncnc2cc1OCCCN1CCCC1 [cediranib] (first compound 0.04 µM, partner dose 0.4 µM) | 97.1% | 99.4% | 97.6% | 89.5% | 74.6% | 98.8% | 99.6% | 113% | 87.9% | 78%
Cn1c(=O)n(-c2ccc(C(C)(C)C#N)cc2)c2c3cc(-c4cnc5ccccc5c4)ccc3ncc21 + O=C(Nc1cccc(Cl)c1)Nc1ncc(CCNc2ncnc3ccsc23)s1 [SNS314] (first compound 0.004 µM, partner dose 0.0008 µM) | 96.9% | 81.6% | 97.8% | 89.1% | 81.3% | 76.6% | 86.4% | 127% | 97.2% | 88.8%
CC(C)C[C@H](NC(=O)[C@H](Cc1ccccc1)NC(=O)c1cnccn1)B(O)O [Bortezomib] + COc1ccc2c(c1)CCC1C2CCC2(C)C(NCCCCCCN3C(=O)C=CC3=O)CCC12 [U73122] (first compound 0.001 µM, partner dose 0.4 µM) | 72.2% | 83.9% | 64.4% | 67% | 93.9% | 98.2% | 77.6% | 92.4% | 71.5% | 65.4%
Cc1cn(-c2cc(NC(=O)c3ccc(C)c(Nc4nccc(-c5cccnc5)n4)c3)cc(C(F)(F)F)c2)cn1 [nilotinib] + O=C(Nc1cccc(Cl)c1)Nc1ncc(CCNc2ncnc3ccsc23)s1 [SNS314] (first compound 0.2 µM, partner dose 0.0008 µM) | 88.4% | 98.6% | 71.4% | 98.7% | 94.7% | 95.7% | 78.9% | 106% | 107% | 82.4%
Cn1c(=O)n(-c2ccc(C(C)(C)C#N)cc2)c2c3cc(-c4cnc5ccccc5c4)ccc3ncc21 + O=C(CCCCCCC(=O)Nc1ccccc1)NO [vorinostat] (first compound 0.004 µM, partner dose 0.08 µM) | 101% | 89.1% | 97.7% | 104% | 71% | 84.5% | 104% | 90.7% | 101% | 86.1%
Cc1cn(-c2cc(NC(=O)c3ccc(C)c(Nc4nccc(-c5cccnc5)n4)c3)cc(C(F)(F)F)c2)cn1 [nilotinib] + c1cc(-c2cnn3cc(-c4ccc(OCCN5CCCCC5)cc4)cnc23)ccn1 [Dorsomorphin] (first compound 0.2 µM, partner dose 0.4 µM) | 94.2% | 97.6% | 91.5% | 96.1% | 95.2% | 113% | 98.7% | 84.2% | 82.1% | 110%
Cn1c(=O)n(-c2ccc(C(C)(C)C#N)cc2)c2c3cc(-c4cnc5ccccc5c4)ccc3ncc21 + CCCCCCCCCCCC1=C(O)C(=O)C=C(O)C1=O [Embelin] (first compound 0.004 µM, partner dose 1.2 µM) | 108% | 87.6% | 99.7% | 109% | 93% | 87.4% | 71.7% | 93.8% | 110% | 100%
Cc1cc(Nc2cc(N3CCN(C)CC3)nc(/C=C/c3ccccc3)n2)n[nH]1 + CC(=O)c1c(C)c2cnc(Nc3ccc(N4CCNCC4)cn3)nc2n(C2CCCC2)c1=O [palbociclib] (first compound 0.04 µM, partner dose 0.04 µM) | 76.3% | 80.3% | 78.6% | 80% | 87.7% | 83.8% | 77.7% | – | – | 86.9%
Cn1c(=O)n(-c2ccc(C(C)(C)C#N)cc2)c2c3cc(-c4cnc5ccccc5c4)ccc3ncc21 + COC(=O)c1sccc1S(=O)(=O)Nc1ccc(Nc2ccccc2)cc1OC [GSK0660] (first compound 0.004 µM, partner dose 1 µM) | 93.2% | 76.9% | 98.4% | 94.1% | 85.6% | 92.5% | 81.8% | 99% | 115% | 88.7%
